The values that follow come from ChEMBL document CHEMBL4888484, “Replenishing the malaria drug discovery pipeline: Screening and hit evaluation of the MMV Hit Generation Library 1 (HGL1) against asexual blood stage Plasmodium falciparum ,using a nano luciferase reporter read-out” (2022).

Each structure is given as a SMILES string. Out of some 150,000 compounds screened, about 540 (0.36%) showed an effect of 50% or more. The list shows a part of the results.

The assay deals with Plasmodium falciparum. Nature of the assay: Primary screen in NF54 nanoGlo assay, in single point, at 2uM, 72h; a lower Z score goes with more inhibition. The format is functional, Erythrocyte. As to conditions: timepoint 72 hour.
For orientation: % Inhibition means the drop in the measured response relative to a control, in per cent. For `CCc1ccccc1NC(=O)CN1CCN(Cc2c(C)cc(C)cc2C)S1(=O)=O`, the “% Inhibition” value is listed as -21% and the Z score turned out to be 1.87.
With `CN(C)c1cccc(NC(=O)c2ccc(S(C)(=O)=O)cc2)n1`, the “% Inhibition” value is given as -1% and the Z score is on record as 0.19.
With `O=C(O)c1ccc(CN2CC[C@H](c3nnc(-c4ccccc4)o3)C2)cc1`, the “% Inhibition” value is listed as -1% and the Z score is reported as 0.16.
The like results for `O=C(c1ccc2ncsc2c1)N1CCC[C@H](Oc2cnccn2)C1` were, in that order, 6% and -0.73.
Take `CN(C[C@@H]1C[C@H](F)CN1Cc1cccs1)C1CCOC1` (stereo partly drawn): the “% Inhibition” value was -6% and the Z score is reported as 0.66.
The like results for `Cc1noc(C)c1CN1C[C@H]2CC[C@@H](C1)N(C(=O)Nc1ccccc1F)C2` were, in that order, 1% and -0.14.
For `C#CCNC(=O)CCCC(=O)c1c(C)cc(C)cc1C`, the “% Inhibition” value is listed as -2% and the Z score was determined as 0.38.
As to `Cc1cc(Br)cc(Cl)c1OCC(=O)NCC(C)C`, the “% Inhibition” value was -11% and the Z score is given as 2.08.
The like results for `Cc1nn(C)c2nc(Nc3c(N4CCCC4)nn(C)c3C)sc12` were, in that order, -8% and 0.88.
The like results for `CCc1noc(CO[C@H]2CCCN(C(=O)Cc3cccs3)C2)n1` were, in that order, 3% and -0.5.
Turning to `c1cnn(-c2ccc(CN3CCCC4CCCCC43)cc2)c1` (stereo not drawn), the “% Inhibition” value is listed as -3% and the Z score was determined as 0.49.
The like results for `CCOC1CC(NC(=O)N2CCCC(C)(CO)C2)C12CCC2` (stereo not drawn) were, in that order, -7% and 0.89.
The corresponding values for `Cc1ccc(NC(=O)Cn2c(=O)n(CCc3cccs3)c(=O)c3sccc32)cc1C` are 2% and -0.24.
Consider `CCc1nnc(-c2ccc3ccn(CC(=O)N4CCN(c5ccc(OC)cc5)CC4)c3c2)o1`, for which the “% Inhibition” value is -1% and the Z score is 0.14.
Turning to `N#Cc1c(NC(=O)c2cc(Cl)sc2Cl)sc2c1CCCC2`, the “% Inhibition” value is listed as -13% and the Z score came out at 2.29.
For the compound `Cc1cnc(CN(C)CCN2CCOCC2)c(C)c1O`, the “% Inhibition” value was -5% and the Z score was 1.04.
With `Cc1cccc(-c2nc3ccc(C(=O)NCCN4CCOCC4)cc3nc2-c2cccc(C)c2)c1`, the “% Inhibition” value stood at 11% and the Z score is listed as -1.38.
The like results for `CN(C(=O)C1CCCCCC1)[C@H]1CCCN(C(=O)C2CCCCCC2)CC1` were, in that order, -8% and 1.12.
Turning to `CC(C)c1nc(CNc2nc(-c3ccccc3)no2)no1`, the “% Inhibition” value is reported as -6% and the Z score was 0.96.
The corresponding values for `Cc1nn(-c2ccc(C(=O)NCCc3cccs3)cn2)c(C)c1C` are 0% and -0.01.
The corresponding values for `CCOc1ccccc1CNC(=O)C1CCN(c2c(C(=O)N3CCCC3)cnc3snc(C)c23)CC1` are 4% and -0.52.
As for `Cc1cccc2c(N3CC[C@H]4CCCC[C@H]43)ncnc12`, the “% Inhibition” value was -6% and the Z score came out at 0.7.
For `CNc1cc(-c2nc(CC3CCN(C)CC3)nn2CC(F)(F)F)ccn1`, the “% Inhibition” value is reported as -9% and the Z score was 1.2.
The corresponding values for `Cc1ccc(C)c(OC2CCN(S(=O)(=O)c3c(N)noc3C)CC2)c1` are -9% and 1.53.
As to `Cc1nnc(NC2CCCCC2)nc1O`, the “% Inhibition” value was -45% and the Z score came to 5.28.
The corresponding values for `CC[C@H](Oc1cccc(C)c1)C(=O)NS(=O)(=O)c1sc(C)nc1C` are -6% and 1.05.
On to `C[C@H]1Cc2cc(C(=O)N3CCC4(CC3)c3nc[nH]c3CCN4C)ccc2O1`, for which the “% Inhibition” value is reported as -11% and the Z score is given as 1.51.
The like results for `CCC(=O)Nc1c(-c2ccccn2)nsc1C(=O)N[C@@H](C)CC` were, in that order, -2% and 0.23.
The like results for `Cc1sc(-c2noc(C(C)C)n2)cc1S(=O)(=O)N1CCC[C@H](C(=O)N2CCN(C)CC2)C1` were, in that order, 4% and -0.4.
The like results for `CCCC[C@H]1C(=O)NCCN1C(=O)Nc1cccnc1OC` were, in that order, -7% and 1.1.
For `Cc1noc([C@@H]2CC[C@H](CNCC(C(C)C)C(C)C)O2)n1`, the “% Inhibition” value is -16% and the Z score was found to be 1.96.
The like results for `O=C(Nc1cccnc1)[C@H]1CC(=O)N(C2CCOCC2)C1` were, in that order, -2% and 0.38.
The corresponding values for `Cc1cc(C(=O)Nc2nc3cc4c(cc3s2)OCCCO4)on1` are -10% and 1.23.
The corresponding values for `O=C(N/C(=N/c1ccccc1)N1CCN(C2CCCCC2)CC1)c1ccccc1` are -7% and 1.22.
For `Cc1nc(N2CCC[C@@H]2CO)c2cnn(-c3cccc(Cl)c3)c2n1`, the “% Inhibition” value is -2% and the Z score worked out at 0.27.
The corresponding values for `N#Cc1cc2c([nH]c1=O)CCN(C(=O)c1cccc(Oc3ccc(F)cc3)c1)C2` are -6% and 0.9.
The corresponding values for `COc1ccccc1C(=O)NC(=O)COC(=O)CN1C(=O)NC2(CCCCC2C)C1=O` (stereo not drawn) are -7% and 0.79.
The corresponding values for `O[C@@H](COCc1ccccc1)Cn1ccnc1-c1cnccn1` are -4% and 0.36.
Regarding `COCCNC(=O)CCN(CC(C)C)C(=O)c1cc(C)on1`, the “% Inhibition” value is listed as -5% and the Z score is 0.69.
The corresponding values for `O=C(Nc1cccs1)Nc1ccccc1NC(=O)c1cccs1` are 3% and -0.41.
For `CCN=C(NCCOc1ccc(OC)cc1)N(C)C`, the “% Inhibition” value is recorded as 1% and the Z score is -0.1.
The corresponding values for `Cc1cccc(C(=O)N2CCc3[nH]nc(C(=O)N4CCOCC4)c3C2)c1` are -4% and 0.64.
The like results for `O=C(C[C@H]1CC(=O)Oc2ccccc21)Nc1nnn[nH]1` were, in that order, -12% and 1.59.
The like results for `CNS(=O)(=O)c1cc(-c2[nH]ncc2C(=O)N(C)C)oc1C` were, in that order, -4% and 0.42.
For the compound `Cc1cc(F)ccc1NC(=O)C(=O)NCc1csc(C(C)(C)C)n1`, the “% Inhibition” value is -10% and the Z score is 1.28.
On to `CC(C)(C)OC(=O)N[C@H]1CCCCC[C@H]1C(=O)O`, for which the “% Inhibition” value was -4% and the Z score is recorded as 0.49.
In the case of `O=C(Nc1nc2c(s1)CN(C(=O)c1nc3ccccc3s1)CC2)c1ccco1`, the “% Inhibition” value was -16% and the Z score is reported as 2.39.
For `O=C(c1cc(-c2ccc(F)cc2)n[nH]1)N1CC(CF)C1`, the “% Inhibition” value is recorded as -9% and the Z score was found to be 1.79.
The like results for `NC1(c2noc(-c3sc4cc(Cl)ccc4c3Cl)n2)CCC1` were, in that order, -6% and 0.66.
The like results for `Cn1c(CN2CCC(O)CC2)nnc1C1CCN(C(=O)CC2CC2)CC1` were, in that order, 4% and -0.64.
The like results for `CCOc1cc(N2CCC=C(c3cccnc3)C2)ncn1` were, in that order, -6% and 0.65.
Turning to `COC(C)(C)/C=C(\N)C(=O)c1ccccc1`, the “% Inhibition” value is reported as -12% and the Z score is 1.55.
As to `CCS(=O)(=O)c1cc(F)ccc1NC(=O)N1CCC[C@H](n2cc(C)cn2)C1`, the “% Inhibition” value was -2% and the Z score stood at 0.27.
In the case of `Cc1noc(C)c1Cn1cnc2cc(F)c(F)cc21`, the “% Inhibition” value is reported as -10% and the Z score came out at 1.47.
The corresponding values for `CCOC(=O)c1cnc(NCc2cncc(F)c2)s1` are -5% and 0.88.
For the compound `Cn1cc(-c2ccc(CN3CCCCC3)cc2)c(C#N)n1`, the “% Inhibition” value is reported as 3% and the Z score is -0.51.
The corresponding values for `CCNC(=O)c1cccc(N(C)S(C)(=O)=O)c1` are -2% and 0.45.
The like results for `Cc1nn(-c2ccccc2)c2sc(C(=O)N3CCCC3)cc12` were, in that order, -3% and 0.29.
The corresponding values for `COCc1noc(CN2CCN(Cc3ccccc3)[C@H]3CS(=O)(=O)C[C@H]32)n1` are -13% and 1.7.
With `COc1cccc(-c2nc3ccc(-c4ccccc4)cn3c2CN2CCN(S(=O)(=O)c3ccc(F)cc3OC)CC2)c1`, the “% Inhibition” value turned out to be 7% and the Z score is listed as -0.77.
The like results for `CN(C)c1ccc(-c2nc3[nH]cnn3c2Nc2ccccc2)cc1` were, in that order, 36% and -4.8.
Take `Cc1ccc(OCC[C@H]2CCN(C(=O)c3cccnc3)C2)cc1`: the “% Inhibition” value is given as -8% and the Z score turned out to be 1.46.
For `CCNC(=NCCc1ncc(C)cn1)NCC`, the “% Inhibition” value is recorded as -12% and the Z score came to 1.56.
The like results for `CCO[C@@H](C)C(=O)NCCNc1nc(C)cc(=O)[nH]1` were, in that order, -1% and 0.16.
As to `CC(=O)N1CCC(C(=O)N2C3CCC2CC(n2nccn2)C3)CC1` (stereo not drawn), the “% Inhibition” value was determined as 3% and the Z score is recorded as -0.52.
The corresponding values for `CC1CN(CC(O)COCCOc2ccc(Cl)cc2)CC(C)O1` (stereo not drawn) are -4% and 0.7.
The corresponding values for `CCN(C(=O)c1cn(CCOC)nn1)[C@@H](C)Cc1ccsc1` are -11% and 2.14.
With `Cc1ccc2nc(N3CCN(Cc4ccccc4)CC3)c(-c3noc(C)n3)cc2c1`, the “% Inhibition” value is -13% and the Z score stood at 2.48.
Take `O=C(O)CCC1CCCN(C(=O)C2COCCO2)C1` (stereo not drawn): the “% Inhibition” value is 3% and the Z score was -0.31.
The corresponding values for `Cc1ccc2[nH]c(CCNC(=O)CCS(=O)(=O)c3ccc4c(c3)CC(=O)N4C)nc2c1` are 3% and -0.44.
On to `Cn1cnnc1CN1CCC2(CCC(=O)N(CCc3ccccn3)C2)CC1`, for which the “% Inhibition” value was 3% and the Z score is -0.45.
As to `O=C(CN1CCO[C@H](c2cccc(O)c2)C1)N(C1CCCC1)C1CC1`, the “% Inhibition” value is -2% and the Z score is listed as 0.31.
With `C[C@H](O)CC(C)(C)CNS(=O)(=O)c1ccc(F)cc1C#N`, the “% Inhibition” value is listed as -4% and the Z score was found to be 0.37.
Regarding `O=C1NC[C@H]2O[C@H](CCOc3ccccc3C(=O)N3CCN(C4CCNCC4)C[C@@H]13)CC[C@H]2n1cc(CN2CCOCC2)nn1`, the “% Inhibition” value was determined as 5% and the Z score is listed as -0.77.
The corresponding values for `CC[C@@H](C(=O)NCc1ccc2c(c1)OCO2)n1nc(C)c2nn(-c3ccccc3)c(C)c2c1=O` are 3% and -0.44.
On to `Cc1cc([C@H](C)NCCc2nc(C)c(C)s2)no1`, for which the “% Inhibition” value was -11% and the Z score is reported as 1.25.
Consider `C[C@@H](CCc1ccccc1)NC(=O)C1CCN(S(=O)(=O)c2ccc(C#N)cc2)CC1`, for which the “% Inhibition” value is reported as -7% and the Z score stood at 0.87.
Regarding `O=C(CN1CCC(COCc2ccc(F)cc2)CC1)N1CCc2ccccc21`, the “% Inhibition” value was -13% and the Z score is reported as 1.44.
Take `COc1ccc(C(F)(F)c2nc(-c3ccsc3)no2)cc1`: the “% Inhibition” value was -2% and the Z score was found to be 0.38.
The like results for `COc1ccccc1CC(NC(=O)C1CCOC1)C(C)C` (stereo not drawn) were, in that order, -1% and 0.26.
As for `O=C(Nc1ccc(N2CCOCC2)cc1)[C@H]1CCCN(c2cnc3nccnc3c2)C1`, the “% Inhibition” value was -2% and the Z score is reported as 0.45.
The corresponding values for `Cc1c(Cl)cc(NC(=O)N(C)Cc2ncnn2C)cc1Cl` are -15% and 2.17.
The like results for `CC(C)[C@H]1C=CCN1Cc1cc2n(n1)CCCNC2` were, in that order, 2% and -0.28.
The like results for `Cc1n[nH]c([C@@H]2CN(c3cc(C(C)(C)C)nc(C(C)(C)C)n3)CCO2)n1` were, in that order, 31% and -3.97.
